# This is one part of the list.
# B1: OGAA (protein)
# chain: MVQKESQATLEERESELSSNPAASAGASLEPPAAPAPGEDNPAGAGGAAVAGAAGGARRFLCGVVEGFYGRPWVMEQRKELFRRLQKWELNTYLYAPKDDYKHRMFWREMYSVEEAEQLMTLISAAREYEIEFIYAISPGLDITFSNPKEVSTLKRKLDQVSQFGCRSFALLFADIDHNMCAADKEVFSSFAHAQVSITNEIYQYLGEPETFLFCPTEYCGTFCYPNVSQSPYLRTVGEKLLPGIEVLWTGPKVVSKEIPVESIEEVSKIIKRAPVIWDNIHANDYDQKRLFLGPYKGRSTELIPRLKGVLTNPNCEFEANYVAIHTLATWYKSNMNGVRKDVVMTDSEDSTVSIQIKLENEGSDEDIETDVLYSPQMALKLALTEWLQEFGVPHQY
# Legend:
# Experiment in all cases: glycan array binding signal (z-score within array); higher = stronger binding
# Conditions in all cases: glycan notation: IUPAC condensed, linker removed
# [1] = target: Neu5Ac(a2-6)Gal(b1-4)GlcNAc(b1-2)Man(a1-3)[Neu5Ac(a2-3)Gal(b1-4)GlcNAc(b1-2)Man(a1-6)]Man(b1-4)GlcNAc(b1-4)GlcNAc
# In short: (§1)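 From the Consortium for Functional Glycomics database, 3228 arrays were curated, keeping only those whose protein sequence was available. Binding is given as a within-array Z-score averaged across arrays sharing a protein sequence and across linkers. Negative Z-scores can be read as non-binding.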
# [2] = target: Neu5Ac(a2-6)Gal(b1-4)GlcNAc(b1-2)Man(a1-3)[Neu5Ac(a2-6)Gal(b1-4)GlcNAc(b1-2)Man(a1-6)]Man(b1-4)GlcNAc(b1-4)GlcNAc
# In short: as §1
# [3] = target: Neu5Ac(a2-6)Gal(b1-4)GlcNAc(b1-2)Man(a1-3)[Neu5Ac(a2-6)Gal(b1-4)GlcNAc(b1-2)Man(a1-6)]Man(b1-4)GlcNAc(b1-4)[Fuc(a1-6)]GlcNAc
# In short: as §1
# [4] = target: Neu5Ac(a2-6)Gal(b1-4)GlcNAc(b1-2)Man(a1-6)Man(b1-4)GlcNAc(b1-4)GlcNAc
# In short: as §1
# [5] = target: Neu5Ac(a2-6)Gal(b1-4)GlcNAc(b1-2)Man(a1-6)[Gal(b1-4)GlcNAc(b1-2)Man(a1-3)]Man(b1-4)GlcNAc(b1-4)GlcNAc
# In short: as §1
# [6] = target: Neu5Ac(a2-6)Gal(b1-4)GlcNAc(b1-2)Man(a1-6)[GlcNAc(b1-2)Man(a1-3)]Man(b1-4)GlcNAc(b1-4)GlcNAc
# In short: as §1
# [7] = target: Neu5Ac(a2-6)Gal(b1-4)GlcNAc(b1-2)Man(a1-6)[Man(a1-3)]Man(b1-4)GlcNAc(b1-4)GlcNAc
# In short: as §1
# [8] = target: Neu5Ac(a2-6)Gal(b1-4)GlcNAc(b1-2)[Neu5Ac(a2-6)Gal(b1-4)GlcNAc(b1-4)]Man(a1-3)[GlcNAc(b1-4)][Neu5Ac(a2-6)Gal(b1-4)GlcNAc(b1-2)[Neu5Ac(a2-6)Gal(b1-4)GlcNAc(b1-6)]Man(a1-6)]Man(b1-4)GlcNAc(b1-4)GlcNAc
# In short: as §1
# [9] = target: Neu5Ac(a2-6)Gal(b1-4)GlcNAc(b1-2)[Neu5Ac(a2-6)Gal(b1-4)GlcNAc(b1-4)]Man(a1-3)[GlcNAc(b1-4)][Neu5Ac(a2-6)Gal(b1-4)GlcNAc(b1-4)Man(a1-6)]Man(b1-4)GlcNAc(b1-4)GlcNAc
# In short: as §1
# [10] = target: Neu5Ac(a2-6)Gal(b1-4)GlcNAc(b1-2)[Neu5Ac(a2-6)Gal(b1-4)GlcNAc(b1-6)]Man(a1-6)[Neu5Ac(a2-6)Gal(b1-4)GlcNAc(b1-2)Man(a1-3)][GlcNAc(b1-4)]Man(b1-4)GlcNAc(b1-4)GlcNAc
# In short: as §1
# [11] = target: Neu5Ac(a2-6)Gal(b1-4)GlcNAc(b1-3)Gal(b1-3)GlcNAc
# In short: as §1
# [12] = target: Neu5Ac(a2-6)Gal(b1-4)GlcNAc(b1-3)Gal(b1-4)GlcNAc
# In short: as §1
# [13] = target: Neu5Ac(a2-6)Gal(b1-4)GlcNAc(b1-3)Gal(b1-4)GlcNAc(b1-2)Man(a1-3)[Neu5Ac(a2-6)Gal(b1-4)GlcNAc(b1-3)Gal(b1-4)GlcNAc(b1-2)Man(a1-6)]GalNAc
# In short: as §1
# [14] = target: Neu5Ac(a2-6)Gal(b1-4)GlcNAc(b1-3)Gal(b1-4)GlcNAc(b1-3)Gal(b1-4)GlcNAc
# In short: as §1
# [15] = target: Neu5Ac(a2-6)Gal(b1-4)GlcNAc(b1-3)Gal(b1-4)GlcNAc(b1-3)Gal(b1-4)GlcNAc(b1-2)Man(a1-3)[Neu5Ac(a2-6)Gal(b1-4)GlcNAc(b1-3)Gal(b1-4)GlcNAc(b1-3)Gal(b1-4)GlcNAc(b1-2)Man(a1-6)]GalNAc
# In short: as §1
# [16] = target: Neu5Ac(a2-6)Gal(b1-4)GlcNAc(b1-3)Gal(b1-4)GlcNAc(b1-3)GalNAc
# In short: as §1
# [17] = target: Neu5Ac(a2-6)Gal(b1-4)GlcNAc(b1-3)Gal(b1-4)GlcNAc(b1-3)[Neu5Ac(a2-6)Gal(b1-4)GlcNAc(b1-3)Gal(b1-4)GlcNAc(b1-6)]GalNAc
# In short: as §1
# [18] = target: Neu5Ac(a2-6)Gal(b1-4)GlcNAc(b1-3)Gal(b1-4)GlcNAc(b1-6)[Gal(b1-3)]GalNAc
# In short: as §1
# [19] = target: Neu5Ac(a2-6)Gal(b1-4)GlcNAc(b1-3)Gal(b1-4)[Fuc(a1-3)]GlcNAc(b1-3)Gal(b1-4)[Fuc(a1-3)]GlcNAc
# In short: as §1
# [20] = target: Neu5Ac(a2-6)Gal(b1-4)GlcNAc(b1-3)GalNAc
# In short: as §1
# [21] = target: Neu5Ac(a2-6)Gal(b1-4)GlcNAc(b1-3)[Neu5Ac(a2-6)Gal(b1-4)GlcNAc(b1-6)]GalNAc
# In short: as §1
# [22] = target: Neu5Ac(a2-6)Gal(b1-4)GlcNAc(b1-6)GalNAc
# In short: as §1
# [23] = target: Neu5Ac(a2-6)Gal(b1-4)GlcNAc(b1-6)[Gal(b1-3)GlcNAc(b1-3)]Gal(b1-4)Glc
# In short: as §1
# [24] = target: Neu5Ac(a2-6)Gal(b1-4)GlcNAc(b1-6)[Gal(b1-3)]GalNAc
# In short: as §1
# [25] = target: Neu5Ac(a2-6)Gal(b1-4)GlcNAc6S
# In short: as §1
# Neu5Ac(a2-6)GalNAc = target: Neu5Ac(a2-6)GalNAc
# In short: as §1
# [26] = target: Neu5Ac(a2-6)GalNAc(b1-4)GlcNAc
# In short: as §1
# [27] = target: Neu5Ac(a2-6)GalNAc(b1-4)GlcNAc6S
# In short: as §1
# [28] = target: Neu5Ac(a2-6)GlcNAc(b1-4)GlcNAc
# In short: as §1
# [29] = target: Neu5Ac(a2-6)GlcNAc(b1-4)GlcNAc(b1-4)GlcNAc
# In short: as §1
binder,measurement,setting,value
B1,glycan array binding signal (z-score),[1],-0.104
same,glycan array binding signal (z-score),[2],-0.079
same,glycan array binding signal (z-score),[3],-0.088
same,glycan array binding signal (z-score),[4],-0.079
same,glycan array binding signal (z-score),[5],-0.059
same,glycan array binding signal (z-score),[6],-0.092
same,glycan array binding signal (z-score),[7],-0.097
same,glycan array binding signal (z-score),[8],-0.006
same,glycan array binding signal (z-score),[9],-0.01
same,glycan array binding signal (z-score),[10],-0.01
same,glycan array binding signal (z-score),[11],-0.112
same,glycan array binding signal (z-score),[12],-0.084
same,glycan array binding signal (z-score),[13],-0.081
same,glycan array binding signal (z-score),[14],-0.04
same,glycan array binding signal (z-score),[15],-0.053
same,glycan array binding signal (z-score),[16],-0.094
same,glycan array binding signal (z-score),[17],-0.066
same,glycan array binding signal (z-score),[18],-0.107
same,glycan array binding signal (z-score),[19],-0.066
same,glycan array binding signal (z-score),[20],-0.036
same,glycan array binding signal (z-score),[21],-0.081
same,glycan array binding signal (z-score),[22],-0.101
same,glycan array binding signal (z-score),[23],-0.079
same,glycan array binding signal (z-score),[24],-0.125
same,glycan array binding signal (z-score),[25],-0.005
same,glycan array binding signal (z-score),Neu5Ac(a2-6)GalNAc,-0.147
same,glycan array binding signal (z-score),[26],-0.074
same,glycan array binding signal (z-score),[27],-0.012
same,glycan array binding signal (z-score),[28],-0.12
same,glycan array binding signal (z-score),[29],-0.021
